The values below come from ChEMBL document CHEMBL1201862, “PubChem BioAssay data set” (2004).

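Five compound concentrations were applied to cells in 96-well plates for 48 hours; endpoints were derived by simple linear interpolation of the resulting dose-response curve. GI50 is the concentration that inhibits growth by half.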 Calls of active or inactive are those of the source. Cut-off read from the data, not from the text of the source: active = GI50 up to about 1.1 µM and inactive = higher.

The assay deals with NCI-H322M. Put plainly: inhibition of tumour cell growth, NCI panel, 48 h.
Take `O=C(CSc1nnc(Cc2ccccc2)o1)Nc1ccccc1`: the GI50 was inactive: > 100 µM.

Regarding `NC(=O)C1CCCNC1` (stereo not given), the GI50 was inactive: > 100 µM.

As for `COc1cc(C(c2cc3c(cc2O)OCO3)N2CCCCC2)cc(OC)c1OC` (stereo not given), the GI50 is inactive: 25.9 µM.

In the case of `CC(=O)OCC1OC(n2c(-c3ccc(Cl)cc3)ccc(C#N)c2=S)C(OC(C)=O)C(OC(C)=O)C1OC(C)=O` (stereo not given), the GI50 was inactive: > 100 µM.

In the case of `N#C/C(=C1\SCC(=O)N1c1ccccc1)c1nc2ccccc2[nH]1`, the GI50 was inactive: > 100 µM.

For the molecule `N#C/C(C(=O)CCl)=C1\Nc2ccccc2O1`, the GI50 is inactive: 12.4 µM.

For `COC(=O)c1ccc(/C=C2\N=C(C)OC2=O)cc1`, the GI50 is inactive: > 100 µM.

Take `Cc1cc(C)c(C2[C@H]3C(=O)N(c4ccc(Cc5ccc(N6C(=O)[C@@H]7ON(c8ccccc8)C(c8c(C)cc(C)cc8C)[C@@H]7C6=O)cc5)cc4)C(=O)[C@H]3ON2c2ccccc2)c(C)c1` (stereo not given in full): the GI50 was inactive: > 100 µM.

Turning to `CCOC(=O)CCC(NC(=O)Cc1ccc(Nc2nc3cc(F)c(F)cc3nc2C(=O)OCC)cc1)C(=O)OCC` (stereo not given), the GI50 is inactive: > 100 µM.

As for `COc1cc([C@@H]2c3cc4c(cc3[C@@H](NC(=O)c3cccc([N+](=O)[O-])c3)C3COC(=O)[C@@H]32)OCO4)cc(OC)c1O` (stereo not given in full), the GI50 is inactive: 6.65 µM.

For the molecule `Nc1nc2ncn(CC(O)COC(=O)c3ccccc3)c2c(=O)[nH]1` (stereo not given), the GI50 is inactive: > 100 µM.

As for `O=C1C(Cl)=C(N2CCN(CCOCCO)CC2)C(=O)c2c(O)ccc(O)c21`, the GI50 was inactive: 1.78 µM.

Turning to `O=C1CC(n2cccc2)c2cc(Br)sc21` (stereo not given), the GI50 is inactive: > 100 µM.

For the molecule `COc1ccc(N[S+]([O-])c2c(C)cc(C)cc2C)cc1` (stereo not given), the GI50 was inactive: 98.6 µM.

In the case of `C[n+]1c(Cl)cn2c3nc4ccccc4nc3c([O-])c(C#N)c21`, the GI50 is inactive: > 100 µM.

As for `CCCCn1c(N)c(-c2nc3ccccc3o2)sc1=S`, the GI50 was inactive: 22.1 µM.

For `COC(=O)C1=C(O)C(C(=O)OC)[C@@]2(O)[C@@H](C(=O)OC)[C@H](C)[C@@H](C)[C@@H]1[C@@H]2C(=O)OC` (stereo not given in full), the GI50 was inactive: > 100 µM.

Turning to `COc1cc(C(=O)/C=C/c2ccc(OCC#N)cc2)cc(OC)c1OC`, the GI50 is inactive: 28.6 µM.

For `CNS(=O)(=O)NNS(=O)(=O)c1ccc(Cl)cc1`, the GI50 is inactive: > 100 µM.

As to `O=c1[nH]nc(-c2ccccc2)n1/N=C/c1ccccc1O`, the GI50 is inactive: 79.4 µM.

`C#CCn1c(=O)c(C)cn(/C(=C\C(=O)OCC)C(=O)OCC)c1=O`: the GI50 is inactive: 20.7 µM.

Turning to `[O-][n+]1c2cc(CN3CCOCC3)c(CN3CCOCC3)cc2[n+]([O-])c2c(O)cccc21`, the GI50 was inactive: 9.27 µM.

On to `O=S(=O)(c1ccccc1)C1CN(Cc2ccccc2)CCN(Cc2ccccc2)C1`, for which the GI50 is inactive: > 59.4 µM.

As for `COC(=O)C(=O)C(C(=O)C=C(C)C)C(=O)C(=O)Nc1cccc(C(C)=O)c1` (stereo not given), the GI50 is inactive: > 100 µM.

On to `CC(C)NC(=O)OCc1c(COC(=O)NC(C)C)c(-c2cc[n+](COC(=O)C3CC3)cc2)n2c1CCC2`, for which the GI50 was inactive: > 100 µM.

For `O=C(c1ccc(-c2ccccc2)cc1)N(Cc1cccnc1)C(=S)N(Cc1cccnc1)C(=O)c1ccc(-c2ccccc2)cc1`, the GI50 was inactive: > 100 µM.

Take `O=C(O)CNc1ccc2c(c1)Cc1cc(Br)ccc1-2`: the GI50 was inactive: 21.7 µM.

Turning to `CC(C)CCNC(=O)c1ccc(CNC(=O)/C=C/c2ccc3c(c2)-c2ccccc2C3)cc1`, the GI50 was inactive: > 100 µM.

On to `C/C(CC/C(C)=N/O)=N\O`, for which the GI50 was inactive: > 100 µM.

With `OC1CSCCCSCCSCCCSC1`, the GI50 is inactive: > 100 µM.

For `Cc1occc1C(=S)Nc1ccc(Cl)c(/C=N/OC(C)C)c1`, the GI50 was inactive: 21.8 µM.

`Nc1ccc2c(c1)C(=O)N1CCC[C@H]1C(=O)N2`: the GI50 was inactive: > 100 µM.

As for `CCOC(=O)/C=C(/CN1C(=O)c2ccccc2C1=O)c1ccccc1`, the GI50 was inactive: > 100 µM.

Turning to `O=C(O)c1ccc(Nc2nc3cc(C(F)(F)F)ccc3nc2-c2ccccc2)cc1`, the GI50 is inactive: 17.8 µM.

For the molecule `COc1ccc(Cn2c(C)nc3c2C(=O)c2ccccc2C3=O)cc1`, the GI50 is inactive: 20 µM.

In the case of `CC1(C)C(=O)C=CC2(C)C1CC(O)C1(C)C2CCC2(C)C(c3ccoc3)OC(=O)C3OC321` (stereo not given), the GI50 is inactive: 30.6 µM.

Regarding `CCOC(=O)c1c(NC(=O)c2ccccc2)sc2c1CCC2`, the GI50 was inactive: > 100 µM.

Take `Cc1ccc(C2=C(c3ccccc3)C(Br)(c3ccccc3)C(c3ccccc3)=C2c2ccc(C)cc2)cc1`: the GI50 was inactive: > 100 µM.

For the molecule `Brc1cccc(Nc2nc(-c3cccs3)nc3ccc(Br)cc23)c1`, the GI50 was inactive: 29.6 µM.

Consider `O=C(O)c1cc2cc(c1)/N=C/c1ccccc1OCc1cccc(n1)COc1ccccc1/C=N/2`, for which the GI50 is inactive: > 25 µM.

Turning to `O=c1cc2oc3ccc4ccccc4c3cc-2c(=O)[nH]1`, the GI50 is inactive: 14.9 µM.

As for `CSCCC(NC(=O)C(Cc1ccccc1)NC(=O)CNC(=O)CNC(=O)C(N)Cc1ccc(O)cc1)C(=O)O` (stereo not given), the GI50 was inactive: > 100 µM.

As to `N=C(N)SCCC(=O)CCSC(=N)N`, the GI50 was inactive: > 100 µM.

Take `CCCCCCCCCCCCCCCCCCNc1nc(=O)n(C2CC(O)C(COP(=O)(O)O)O2)cc1F` (stereo not given): the GI50 was inactive: > 100 µM.

As for `CCc1ccccc1NC(=O)CCc1nnc(S)[nH]1`, the GI50 is inactive: > 100 µM.

On to `COCOc1cc(OC)ccc1C/C(=N/O)C(=O)OC`, for which the GI50 is inactive: > 100 µM.

For `CCOC(=O)c1nc2cc(C(F)(F)F)ccc2nc1Oc1ccc(C#N)cc1`, the GI50 was inactive: 34.3 µM.

For `Nc1c(C(=O)c2ccc(Cl)c(Cl)c2)[nH]c(NCc2ccccc2)c1C(=S)Nc1ccccc1`, the GI50 is inactive: 5.15 µM.

In the case of `C1CN2CCN3CCN4CCN1[PH]243`, the GI50 is inactive: > 100 µM.

`CCCCCCCCCCCCCC(=O)OCC1OC(OC)C(NC(=O)N(CCCl)N=O)C(O)C1O` (stereo not given): the GI50 was inactive: 21.3 µM.

As to `COc1cc(/C=C2/SC(c3ccccc3)N(c3ccc(Cl)cc3)C2=O)cc(OC)c1OC` (stereo not given), the GI50 was inactive: 98.4 µM.

For the molecule `Cc1ccc2c(c1)C(=O)/C(=C1/CCc3ccc(C)cc31)C2`, the GI50 was inactive: > 100 µM.

`Clc1ccc(C2c3ccccc3-c3nc4ccccc4n32)cc1` (stereo not given): the GI50 is inactive: 22.8 µM.

Regarding `O=CC(O)C(O)C(O)C1CNC(=S)O1` (stereo not given), the GI50 is inactive: > 100 µM.

In the case of `CC(C)(C)C1=C(Br)C(C(C)(C)C)OP1(=O)O` (stereo not given), the GI50 is inactive: > 100 µM.

Turning to `COc1ccc2c(c1)CC1Cc3cc(OC)c(OC)cc3CN1CC2` (stereo not given), the GI50 is inactive: 38.6 µM.

Take `NCCCSCC(=O)O`: the GI50 is inactive: > 100 µM.

With `CCN(CC)CCC(=O)c1ccccc1`, the GI50 is inactive: > 100 µM.

`N#CC1(c2ccccc2)CCN(C2(c3ccccc3)CCCCC2)CC1`: the GI50 was inactive: > 100 µM.

`CN1CCN(c2cc(-c3cc4ccccc4o3)oc(=O)c2C#N)CC1`: the GI50 is inactive: > 100 µM.

Consider `CC1OC(OC2C(O)COC(OC3C(C)OC(OC4C(OC(=O)[C@]56CCC(C)(C)C[C@@H]5C5=CCC7[C@@]8(C)C[C@H](O)[C@H](OC9OC(CO)C(O)C(OC%10OC(CO)C(O)C(O)C%10O)C9O)[C@@](C)(CO)[C@@H]8CC[C@@]7(C)[C@]5(C)CC6)OCC(O)C4O)C(O)C3OC3OCC(O)(CO)C3O)C2O)C(O)C(O)C1O` (stereo not given in full), for which the GI50 is inactive: 6.92 µM.

Consider `COc1ccc2cc(/C=N\NC(=O)Nc3ccc([N+](=O)[O-])cc3)ccc2c1`, for which the GI50 is inactive: 16 µM.

Turning to `c1ccc2c(-c3cnc(-c4c[nH]c5ccccc45)cn3)c[nH]c2c1`, the GI50 was inactive: 41.7 µM.

Regarding `CC(=O)OC1C(COC(N)=O)OC(n2c(-c3ccc(C)cc3)cc(-c3ccccc3)c(C#N)c2=O)C(OC(C)=O)C1OC(C)=O` (stereo not given), the GI50 was inactive: > 100 µM.

For the molecule `Nc1nc(Cl)c(N)c(NCC2(CO)CCC(CCc3ccccc3)C2)n1` (stereo not given), the GI50 is inactive: 15.7 µM.

Take `CC(=O)OCC(=O)O[C@@H]1[C@H]2[C@@H](OC(=O)c3ccccc3)[C@@H](C)C[C@]2(O)[C@H](OC(C)=O)[C@@]2(C)C[C@]1(OC(C)=O)C[C@H]1C(=O)C(C)(C)[C@@H](OC(C)=O)[C@@H]12`: the GI50 was inactive: > 25 µM.

Turning to `O=C1C(=Cc2ccc([N+](=O)[O-])o2)C(=O)N(CCc2ccccc2)S(=O)(=O)N1CCc1ccccc1`, the GI50 is inactive: > 100 µM.

Regarding `O=[N+]([O-])c1cccc(/C=N/NC2=CS(=O)(=O)C=C2)c1`, the GI50 was inactive: > 100 µM.

Turning to `NC(=O)N/N=C1\C[C@H]2CCCC[C@H]2C1`, the GI50 was inactive: > 100 µM.

Consider `Cc1cc(C2(c3cc(C)c(O)c(C(=O)O)c3)OS(=O)(=O)c3ccccc32)cc(C(=O)O)c1O`, for which the GI50 was inactive: > 100 µM.

With `CC(=O)Nc1ccc(/N=N\c2c(O)c(S(=O)(=O)O)cc3cc(S(=O)(=O)O)ccc23)cc1`, the GI50 is inactive: > 100 µM.

Take `O=S(=O)(O)c1cc(S(=O)(=O)O)c2c(/N=N/c3ccccc3)c(O)ccc2c1`: the GI50 was inactive: > 100 µM.

For `CCCCCCC(O)C/C=C/CCCCCC/C(C(=O)OC)=C(/O)C(=O)OCC` (stereo not given), the GI50 was inactive: > 100 µM.

In the case of `CCC12C=CCN3CCC4(C(=C(C(=O)OC)[C@@H]1O)Nc1ccccc14)C32` (stereo not given in full), the GI50 is inactive: 2.58 µM.

With `C/N=C(\S)N/N=C/C(C)=N/N/C(S)=N/C`, the GI50 was active: 0.278 µM.

Regarding `O=[N+]([O-])c1cccc(Cl)c1Oc1ccc(S(=O)(=O)N/C(=N\O)Nc2ccc(Cl)cc2)cc1`, the GI50 was inactive: 12.3 µM.

As to `COc1cccc(/C=C\c2cc(OC)c(OC)c(OC)c2)c1`, the GI50 was inactive: 1.68 µM.

For the molecule `CC#C[I+]c1ccccc1`, the GI50 is inactive: 54.7 µM.

With `Clc1n[nH]c2ccccc12`, the GI50 was inactive: > 100 µM.

On to `COc1ccc(-c2cc(=O)c3c(OC)c(OC)c(OC)cc3o2)cc1`, for which the GI50 is inactive: 33.3 µM.
